Assay results: patent publication US20230140290A1, “SALICYLAMIDE DERIVATIVES AND RELATED METHODS OF MAKING” (THE BOARD OF REGENTS OF THE UNIVERSITY OF TEXAS SY, priority 2020, published 2023)
Several values for one entry are separate records, joined by “and”; a condition that tells them apart may be missing. Equal values may be shown once. For some of these results: At least one read-out could not be matched to a standard name with certainty. Some results were stated once for a whole list of compounds, not compound by compound.

Assays:
wild-type HAdV5 [1] = assay: Virus yield reduction (virus burst assay, TCID50); type: cell-based, HAdV-5; settings: A549, MOI 100 vp/cell
wild-type HAdV5 [2] = assay: HAdV DNA quantification by real-time PCR (DNA replication); type: cell-based, HAdV-5; settings: 24 h
Description: DNA Quantification by Real-Time PCR. […] Infected cells were incubated 24 h at 37° C. in 500 μL of complete DMEM containing 25 μM of either compounds or the same volume of DMSO (positive control). All samples were done in duplicate. After 24 h of incubation at 37° C., DNA was purified from the cell lysate with the QIAamp DNA Mini Kit (QIAGEN, Valencia, Calif.) following the manufacturer's instructions. TaqMan primers and probes for a common region of the HAdV5 were designed with the GenScript Real-Time PCR (TaqMan) Primer Design software (GenScript). […] Real-time PCR mixtures consisted of 9.5 μL of the purified DNA, AQ1 and AQ2 at a concentration of 200 nM each and Probe at a concentration of 50 nM in a total volume of 25 μL. The PCR cycling protocol was 95° C. for 3 min followed by 40 cycles of 95° C. for 10 s and 60° C. for 30 s. Human glyceraldehyde-3-phosphate dehydrogenase (GAPDH) gene was used as internal control. Oligonucleotides sequences for GAPDH and conditions were those previously reported by Henke-Gendo et al. (2012).
For quantification, gene fragments from hexon, and GAPDH were cloned into the pGEM-T Easy vector (Promega) and known concentrations of template were used to generate a standard curve in parallel for each experiment. All assays were performed in thermal cycler LightCycler® 96 System (Roche).
(§1) HAdV DNA Quantification by Real-Time PCR. […] All samples were done in duplicate. After 24 h of incubation at 37° C., DNA was purified from the cell lysate with the E.Z.N.A.® Tissue DNA Kit (Omega Bio-tek, Norcross, Ga.) following the manufacturer's instructions. TaqMan primers and probes for a common region of the HAdV5 were designed with the GenScript Real-Time PCR (TaqMan) Primer Design software (GenScript). […] Real-time PCR mixtures consisted of 9.5 μL of the purified DNA, AQ1 and AQ2 at a concentration of 200 nM each and Probe at a concentration of 50 nM in a total volume of 25 μL. The PCR cycling protocol was 95° C. for 3 min followed by 40 cycles of 95° C. for 10 s and 60° C. for 30 s. Human glyceraldehyde-3-phosphate dehydrogenase (GAPDH) gene was used as internal control. Oligonucleotides sequences for GAPDH and conditions were those previously reported by Henke-Gendo et al. (2012).
as §1, with “DNA” for “HAdV DNA”

HCMV = HCMV DNA quantification by real-time PCR; type: cell-based, human cytomegalovirus; settings: HFF cells, 72 h, 10-fold plaque IC50 (niclosamide 5 μM)
Description: HCMV DNA Quantification by Real-Time PCR. […] Then, cells were incubated for 72 h at 37° C. and 5% CO2 and HCMV DNA was purified from the cell lysate using the QIAamp DNA Mini Kit (Qiagen, Valencia, Calif.) following the manufacturer's instructions. Real-time PCR primers, mixtures and protocols were the same as previously reported (Sanchez-Cespedes et al., J. Med. Chem. 2016, 59, 5432-5448).

[3] = concentration based on CC50 (11 2 μM; 6, 13, 20, 62 5 μM; 14 10 μM; 60 20 μM; 17, 58, 70 50 μM)
[4] = FIG. 4, concentrations by CC50 (2-50 μM)
[5] = 10-fold plaque IC50 of each compound (niclosamide 5 μM)

SMILES	Virus Yield Reduction (fold) (wild-type HAdV5 [1]; [3])	Virus Yield Reduction (fold) (wild-type HAdV5 [1]; [5])	also measured
O=C(Nc1ccc([N+](=O)[O-])cc1F)c1cc(Cl)ccc1O [Compound 11, 5-Chloro-N-(2-fluoro-4-nitrophenyl)-2-hydroxybenzamide]	1.8 fold and 1.8 ± 0.3 fold		
O=C(Nc1ccc([N+](=O)[O-])cc1)c1cc(Cl)ccc1O [Compound 13, 5-Chloro-2-hydroxy-N-(4-nitrophenyl)benzamide]			inhibition of HAdV-5 DNA replication (qPCR) (wild-type HAdV5 [2]; [4]): more than 90%
O=C(Nc1cc(F)cc(C(F)(F)F)c1)c1cc(Cl)ccc1O [Compound 17, 5-Chloro-N-(3-fluoro-5-(trifluoromethyl)phenyl)-2-hydroxybenzamide]	989 fold and 989 ± 361 fold		
O=C(Nc1cc(F)cc(C(F)(F)F)c1)c1ccc(Cl)cc1O [Compound 20, 4-Chloro-N-(3-fluoro-5-(trifluoromethyl)phenyl)-2-hydroxybenzamide]	385 ± 273 fold		
CC(C)[C@H](NC(=O)c1cc(Cl)ccc1O)C(=O)Nc1ccc([N+](=O)[O-])cc1Cl [Compound 58, (S)-5-Chloro-N-(1-((2-chloro-4-nitrophenyl)amino)-3-methyl-1-oxobutan-2-yl)-2-hydroxybenzamide]	213 ± 78 fold		
O=C(N[C@H](Cc1ccccc1)C(=O)Nc1ccc([N+](=O)[O-])cc1Cl)c1cc(Cl)ccc1O [Compound 60, (R)-5-Chloro-N-(1-((2-chloro-4-nitrophenyl)amino)-1-oxo-3-phenylpropan-2-yl)-2-hydroxybenzamide]	528 ± 100 fold		
CC[C@@H](C)[C@H](NC(=O)c1cc(Cl)ccc1O)C(=O)Nc1ccc([N+](=O)[O-])cc1Cl [Compound 62, 5-Chloro-N-((2S,3R)-1-((2-chloro-4-nitrophenyl)amino)-3-methyl-1-oxopentan-2-yl)-2-hydroxybenzamide]	10.0 ± 3.8 fold		inhibition of HAdV-5 DNA replication (qPCR) (wild-type HAdV5 [2]; [4]): more than 90%
CC(C)[C@H](NC(=O)c1cc(Cl)ccc1NS(C)(=O)=O)C(=O)Nc1ccc([N+](=O)[O-])cc1Cl [Compound 70, (S)-5-Chloro-N-(1-((2-chloro-4-nitrophenyl)amino)-3-methyl-1-oxobutan-2-yl)-2-(methylsulfonamido)benzamide]	1.0 ± 0.4 fold		inhibition of HAdV-5 DNA replication (qPCR) (wild-type HAdV5 [2]; [4]): more than 90%
O=C(Nc1ccc(NC2CCCC2)cc1Cl)c1cc(Cl)ccc1O [Compound 78, 5-Chloro-N-(2-chloro-4-(cyclopentylamino)phenyl)-2-hydroxybenzamide]		17.1 ± 3.1 fold	
CC1(Nc2ccc(NC(=O)c3cc(Cl)ccc3O)c(Cl)c2)CCCC1 [Compound 87, 5-Chloro-N-(2-chloro-4-((1-methylcyclopentyl)amino)phenyl)-2-hydroxybenzamide]		52.6 ± 6.2 fold	
O=C(Nc1ccc(NCc2ccc(O)cc2)cc1Cl)c1cc(Cl)ccc1O [Compound 101, 5-Chloro-N-(2-chloro-4-((4-hydroxybenzyl)amino)phenyl)-2-hydroxybenzamide]		17.4 ± 14.2 fold	
O=C(Nc1ccc(NCc2ccc(O)nc2)cc1Cl)c1cc(Cl)ccc1O [Compound 112, 5-Chloro-N-(2-chloro-4-(((6-hydroxypyridin-3-yl)methyl)amino)phenyl)-2-hydroxybenzamide]		26.6 ± 5.0 fold	decrease of total HCMV DNA compared to the DMSO control (HCMV): 82%
CC(C)(Cc1ccccc1)ON(c1ccc(NC(=O)c2cc(Cl)ccc2O)c(Cl)c1)C(C)(C)Cc1ccccc1 [Compound 115, 5-Chloro-N-(2-chloro-4-((2-methyl-1-phenylpropan-2-yl)((2-methyl-1-phenylpropan-2-yl)oxy)amino)phenyl)-2-hydroxybenzamide]		21.5 ± 0.0 fold	inhibition of HAdV-5 DNA replication (qPCR) (wild-type HAdV5 [2]; FIG. 6A, 10-fold plaque IC50): more than 95%
CC(C)(CCO)Nc1ccc(NC(=O)c2cc(Cl)ccc2O)c(Cl)c1 [Compound 118, 5-Chloro-N-(2-chloro-4-((4-hydroxy-2-methylbutan-2-yl)amino)phenyl)-2-hydroxybenzamide]		15.7 ± 6.8 fold	
CC(CCO)Nc1ccc(NC(=O)c2cc(Cl)ccc2O)c(Cl)c1 (stereo not shown) [Compound 119, 5-Chloro-N-(2-chloro-4-((4-hydroxybutan-2-yl)amino)phenyl)-2-hydroxybenzamide]		9.3 fold and 9.3 ± 2.2 fold	decrease of total HCMV DNA compared to the DMSO control (HCMV): 78%
CC(C)(C)OC(=O)N1CCC(CNc2ccc(NC(=O)c3cc(Cl)ccc3O)c(Cl)c2)CC1 [Compound 126, tert-Butyl 4-(((3-chloro-4-(5-chloro-2-hydroxybenzamido)phenyl)amino)methyl)piperidine-1-carboxylate]		232 fold and 232 ± 85 fold	inhibition of HAdV-5 DNA replication (qPCR) (wild-type HAdV5 [2]; FIG. 6A, 10-fold plaque IC50): more than 95%
